Assay results taken from PMC12136788.
The other results are listed elsewhere or left out.

T1: UNK ZnF1-6 (called full-length) (human, UniProt Q9C0B0 30-357)
T1 sequence: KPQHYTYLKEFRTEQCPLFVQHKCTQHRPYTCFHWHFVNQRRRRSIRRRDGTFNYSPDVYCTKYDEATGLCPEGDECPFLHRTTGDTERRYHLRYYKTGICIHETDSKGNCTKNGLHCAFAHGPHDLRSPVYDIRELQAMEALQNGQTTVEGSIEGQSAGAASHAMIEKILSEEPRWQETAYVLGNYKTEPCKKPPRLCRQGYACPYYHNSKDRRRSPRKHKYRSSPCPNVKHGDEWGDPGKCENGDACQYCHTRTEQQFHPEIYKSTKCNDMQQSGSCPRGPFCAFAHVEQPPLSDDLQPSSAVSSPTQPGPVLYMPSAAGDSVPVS

B1: chr12:56162362:56162467:-|3pUTR|ENSG00000139613|unk|FALSE|unique (ssRNA)
RNA: GGGAGUUCUACAGUCCGACGAUCGGUUCCUCCCACCAGGCCCUUUGUUCCUCAUGUCCCCAUGUUUCUCUCCCUCUGCGUCUUAGCACCUUUCUUCUGUUCAAAGUUUUCUGUAAAUUUUCUCUUUUUUUCUUUCUUUCUUUUCAACAGAGGAUUGAGCAUCA
B2: chr2:216675367:216675485:-|3pUTR|ENSG00000115461|msi1|total|mutant (ssRNA)
RNA: GGGAGUUCUACAGUCCGACGAUCGCCAGGCAGAGGCCAGCCCUCCGUGGUGCACACAGCACGCGCCUCAGUCCAUCCCAUUUCCGUCUUUAAACCCUCAGGAAGUCACAGUCUCCGGACACCACACCACAUGAGCCCAACAGGCAACAGAGGAUUGAGCAUCA
B3: ENSG00000107863:be:win_3551|CDS|ENSG00000107863|bound_else_gene|NA|bound_elsewhere_windowed (ssRNA)
RNA: GGGAGUUCUACAGUCCGACGAUCGAGUUCCUGGAAAUAAUGCAGCCAUCUCAAGUAUGCAAGAAGAACUCAACAAGGGAAUGGCUGAUAUUGAUAUACAAGAUGAUAAAUGGCGAGAUUUGAAUGUGAUAAGCAGUUUACUAACAACAGAGGAUUGAGCAUCA
B4: chr10:73251842:73251943:-|CDS|ENSG00000182180|msi1|total|mutant (ssRNA)
RNA: GGGAGUUCUACAGUCCGACGAUCUCGGCCGUUCUACCGCAUUGUGGCUGCUCACAACAAGUGUCCCAGGGAUGGCCGUUUCGCCGAGCAGCUGGGCUCCUAUGAUCCAUUGCCCAACAGUCAUGGAGAAAAACUCGUUGCCCUCAACAGAGGAUUGAGCAUCA
B5: chr2:159433012:159433119:-|CDS|ENSG00000123636|unk|FALSE|unique (ssRNA)
RNA: GGGAGUUCUACAGUCCGACGAUCGCACUUACUACCAAAACUAAAAUGCAGAGCAAGAUUAAUGAAAACAUUGCUGCUGCAAGUAGCACCCCUUUUUCCUCACCUGUAAAUCUGAGUACAAGUGGGAGAAGAACCCCUGGCAAUCAACAGAGGAUUGAGCAUCA
B6: chr1:42176760:42176861:-|3pUTR|ENSG00000198815|msi1|total|mutant (ssRNA)
RNA: GGGAGUUCUACAGUCCGACGAUCGUCGCUCAGAUGUCCUUUGAAGUGGGAGGGAAUCAAUCCGGGGAUAAUUUCAAAUGGAACCGAGUAUUUUGAUAUUGUUCAUUCAGAGGGUGAUGUGUACAUAUCUAUAUUGUAUAUAUGCAACAGAGGAUUGAGCAUCA
B7: chr1:54850123:54850236:-|3pUTR|ENSG00000116133|msi1_unk|FALSE|overlapping (ssRNA)
RNA: GGGAGUUCUACAGUCCGACGAUCGCCUCCAACCCUAAGCCACUGGGACGGUGGCCAGAGAUGCCAGCAGCCUCUGUCGCCCUUAGUCAUAUAACCAAAAUCCAGACCUUAUCCACAACCCGGGGCUUGGAAAGGAAGGUAUUUCAACAGAGGAUUGAGCAUCA
B8: chr4:124666837:124666938:-|3pUTR|ENSG00000151458|msi1|FALSE|unique (ssRNA)
RNA: GGGAGUUCUACAGUCCGACGAUCAAUGAUUUCUUGGCAGUUUAAAAAAAAUAUUUUAUAGUAGUUUAGGGAGCUGCUUUAAGUAGUUUAAAUCUGGAUUUUCCCAGUAGAAUUCUUCUCAUCUCUGGCUAAACAUGUCAGAACCAACAGAGGAUUGAGCAUCA
B9: ENSG00000133687:stop:overlap|stop_codon|ENSG00000133687|stop_codon|NA|stop_codon (ssRNA)
RNA: GGGAGUUCUACAGUCCGACGAUCUUGCCAAAUUGGAUCGCCUAGAAAAACGAUUACAAGAAGUUCGAGAAAAGGAUCAAACAUAGCACCACCGUCUGACCCAACCUCAUAGGAUAAUGUGGUGCCUCUGAAAGGGGAGUGAUGCAACAGAGGAUUGAGCAUCA
B10: ENSG00000198589:be:win_2001|CDS|ENSG00000198589|bound_else_gene|NA|bound_elsewhere_windowed (ssRNA)
RNA: GGGAGUUCUACAGUCCGACGAUCGAAGGAUUCUGGAGUAAAGGAAGAUGAAUUACAGGCCAUUCUUAAUUACCUACUGACUAUGCAUGAGGAUGACAAUCUAAUGGAUGUCCUACAGCUGCUUGUUGCAUUAAUGUCAGAACACAACAGAGGAUUGAGCAUCA
B11: chr1:109310645:109310811:-|3pUTR|ENSG00000134243|msi1|FALSE|unique (ssRNA)
RNA: GGGAGUUCUACAGUCCGACGAUCAGGGUAACGGGGCUGGCCUGGCAUUAGUCAUUAUUUAGUUUCCAGGCCAACCAUCCAGAUAGAGAUUCCCUCUUUCCUUUGAGCAGUGCUCUCAAGAGCUCCGUGCCUGUCCACAAUGACCAACAGAGGAUUGAGCAUCA
B12: chr21:25758092:25758193:+|CDS|ENSG00000154727|unk|total|mutant (ssRNA)
RNA: GGGAGUUCUACAGUCCGACGAUCGAAUUCAGCAUGACCGAUACCGACCUCACCACACUCAACAUUUCGGGGAGAGAAUUAUGCCGUCUCAACCAAGAAGAUUUUUUUCAGCGGGUUCCUCGGGGAGAAAUUCUCUGGAGUCAUCAACAGAGGAUUGAGCAUCA
B13: chr3:41225653:41225883:+|CDS|ENSG00000168036|unk|FALSE|unique (ssRNA)
RNA: GGGAGUUCUACAGUCCGACGAUCCAUUACAACUCUCCACAACCUUUUAUUACAUCAAGAAGGAGCUAAAAUGGCAGUGCGUUUAGCUGGUGGGCUGCAGAAAAUGGUUGCCUUGCUCAACAAAACAAAUGUUAAAUUCUUGGCCAACAGAGGAUUGAGCAUCA
B14: chr9:83661418:83661519:-|3pUTR|ENSG00000135018|msi1|FALSE|unique (ssRNA)
RNA: GGGAGUUCUACAGUCCGACGAUCUAUAGUUGGGUGACCAGAUUUUGUCCUGCAUCUGUCCAGUUUAUUUGCUUUUUAAACAUUAGCCUAUGGUAGUAAUUUAUGUAGAAUAAAAGCAUUAAAAAGAAGCAAAUCAUUUGCACUCAACAGAGGAUUGAGCAUCA
B15: chr15:34983303:34983404:-|CDS|ENSG00000198146|msi1|FALSE|unique (ssRNA)
RNA: GGGAGUUCUACAGUCCGACGAUCGCUGAAAACAAUUUAAAAAUGCUAAAGAUUCAACAGUGUGUGGUAGCCAACAAACUACCUAGAAACAGGCCAUAUGUUUGCAAUAUUUGUUUUAAGCACUUUGAAACACCAUCAAAAUUACAACAGAGGAUUGAGCAUCA
B16: chr10:30312946:30313047:-|3pUTR|ENSG00000107951|unk|total|mutant (ssRNA)
RNA: GGGAGUUCUACAGUCCGACGAUCUCUUAUUCACAUAUAAAUUAAAGUGGGUUGGUACUGAUAUCAAAAAAUGUUUAUGUUUUCCGAACAGACAUUUCAGUCACUGCAUUCUCCGGUAUUCCAAACCAAAUAUGAUGACAUCAACAACAGAGGAUUGAGCAUCA
B17: chr16:3022182:3022332:+|3pUTR|ENSG00000006327|msi1|FALSE|unique (ssRNA)
RNA: GGGAGUUCUACAGUCCGACGAUCCCACGGGGGUCACCCUGGGGGGUUAGGGACCUAUUUUUAACACUAGGGGGCUGGCCCACUAGGAGGGCUGGCCCUAAGAUACAGACCCCCCCAACUCCCCAAAGCGGGGAGGAGAUAUUUCAACAGAGGAUUGAGCAUCA
B18: chr1:235448940:235449205:-|3pUTR|ENSG00000162885|unk|total|mutant (ssRNA)
RNA: GGGAGUUCUACAGUCCGACGAUCAACCGAGAAUUCCAUUAAAACCCGUCUUAUGACAGAUAUUAACUGUGUUCAGAUUUUAUCCGGCCCGCCCGUUUCUUUCUAUUUAAUAUUUAAAUCUUAUCAUGAAAUGCAGUGAUGAGCCAACAGAGGAUUGAGCAUCA
B19: chr7:123541454:123541562:-|3pUTR|ENSG00000128609|unk|FALSE|unique (ssRNA)
RNA: GGGAGUUCUACAGUCCGACGAUCUCCAUAGUGUCAUUUUAUUUUAGUCAUUAUUGAAUUAUACCAUUUACUCUGUUUUCUUAUAGUCUUAAUUUUAUUAUAUUUUGUUGUUACUGUAUUAUAUUUGAAAACCUUCAAAUUAGACAACAGAGGAUUGAGCAUCA
B20: chr2:227551976:227552087:+|CDS|ENSG00000173744|unk|total|mutant (ssRNA)
RNA: GGGAGUUCUACAGUCCGACGAUCUCCAUGAGCAUGCCCACAGGAUUCGGCACUCCUGCUCCCUACAGUCUUCCCACCAGCUUCCGUGGCAGCUUUCAGCAGCCUGCCUUUCCAGCCCAAGCAGCUUUCCCUCAACAGACAGCUCAACAGAGGAUUGAGCAUCA
B21: ENSG00000070961:be:win_3151|CDS|ENSG00000070961|bound_else_gene|NA|bound_elsewhere_windowed (ssRNA)
RNA: GGGAGUUCUACAGUCCGACGAUCACAUUACUCUGGGGCCAGCUUAUUUCAACAAUUCCAACUAGCCGUUUAAAAUUCCUCAAAGAAGCUGGUCAUGGAACACAAAAGGAAGAAAUACCUGAGGAGGAAUUAGCAGAGGAUGUUCAACAGAGGAUUGAGCAUCA
B22: chr17:41167230:41167584:-|three_prime_utr|ENSG00000196156|control|control|control (ssRNA)
RNA: GGGAGUUCUACAGUCCGACGAUCAUGUGGACUUCCUGAUGUCGUGAAAACAGAGGCAUGGACUGAUUUGGAAAAUAUUUUAUUAGUAUGUAUUCUCUUUUAUAGAAGUUUUUAUUCCUAUUGAAUCUGAAUUUACAGUCAAAUCAACAGAGGAUUGAGCAUCA

The binders below were run against T1, UNK ZnF1-6 (called full-length) (assay: nsRBNS (natural sequence RNA bind-n-seq); RBNS binding buffer (assumed for nsRBNS): 25 mM Tris pH 7.5, 150 mM KCl, 3 mM MgCl2, 0.01% Triton X-100, 500 ug/ml BSA, 20 U/ml SUPERase-In, 4 C; UNK is unkempt and MSI1 is Musashi-1; names of the RNAs are library labels; protein concentration not given here; high values mean tight binding).
Work on B1 yielded a binding signal of 1.8 enrichment R. In the case of B2, the binding signal is reported as 0.85 enrichment R. B3 was tested, and the binding signal was 0.37 enrichment R. For B4, the binding signal was 0.497 enrichment R. B5 gave a binding signal of 0.502 enrichment R. B6 was tested, and the binding signal was 1.09 enrichment R. Binder B7 has a binding signal of 2.25 enrichment R. Work on B8 yielded a binding signal of 1.65 enrichment R. B9 showed a binding signal of 0.41 enrichment R. For B10, the binding signal was 0.539 enrichment R. B11 was tested, and the binding signal was 2.82 enrichment R. B12 showed a binding signal of 0.691 enrichment R. B13 was tested, and the binding signal was 0.535 enrichment R. With B14 the binding signal was 7.97 enrichment R. For B15, the binding signal was 0.38 enrichment R. For B16, the binding signal was 0.417 enrichment R. In the case of B17, the binding signal is reported as 0.628 enrichment R. With B18 the binding signal was 2.39 enrichment R. In the case of B19, the binding signal is reported as 150 enrichment R. B20 showed a binding signal of 0.925 enrichment R. In the case of B21, the binding signal is reported as 1.14 enrichment R. In the case of B22, the binding signal is reported as 5.74 enrichment R.
